Reference: article PMC4336329 (PLoS ONE, 2015)
In all, about 310,000 compounds went through this assay and about 14,000 (4.5%) showed an effect of 50% or more. Effects have a minus sign here. The list shows a part of the results.
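Note: peak tail current of the secondary pulse compared with the same well before compound.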

These compounds were tested against human ether-à-go-go-related gene (hERG) potassium channel (human, UniProt Q12809) (assay: primary screen, population patch clamp on CHO cells stably expressing hERG).
Chain of human ether-à-go-go-related gene (hERG) potassium channel (Q12809 whole entry, looked up): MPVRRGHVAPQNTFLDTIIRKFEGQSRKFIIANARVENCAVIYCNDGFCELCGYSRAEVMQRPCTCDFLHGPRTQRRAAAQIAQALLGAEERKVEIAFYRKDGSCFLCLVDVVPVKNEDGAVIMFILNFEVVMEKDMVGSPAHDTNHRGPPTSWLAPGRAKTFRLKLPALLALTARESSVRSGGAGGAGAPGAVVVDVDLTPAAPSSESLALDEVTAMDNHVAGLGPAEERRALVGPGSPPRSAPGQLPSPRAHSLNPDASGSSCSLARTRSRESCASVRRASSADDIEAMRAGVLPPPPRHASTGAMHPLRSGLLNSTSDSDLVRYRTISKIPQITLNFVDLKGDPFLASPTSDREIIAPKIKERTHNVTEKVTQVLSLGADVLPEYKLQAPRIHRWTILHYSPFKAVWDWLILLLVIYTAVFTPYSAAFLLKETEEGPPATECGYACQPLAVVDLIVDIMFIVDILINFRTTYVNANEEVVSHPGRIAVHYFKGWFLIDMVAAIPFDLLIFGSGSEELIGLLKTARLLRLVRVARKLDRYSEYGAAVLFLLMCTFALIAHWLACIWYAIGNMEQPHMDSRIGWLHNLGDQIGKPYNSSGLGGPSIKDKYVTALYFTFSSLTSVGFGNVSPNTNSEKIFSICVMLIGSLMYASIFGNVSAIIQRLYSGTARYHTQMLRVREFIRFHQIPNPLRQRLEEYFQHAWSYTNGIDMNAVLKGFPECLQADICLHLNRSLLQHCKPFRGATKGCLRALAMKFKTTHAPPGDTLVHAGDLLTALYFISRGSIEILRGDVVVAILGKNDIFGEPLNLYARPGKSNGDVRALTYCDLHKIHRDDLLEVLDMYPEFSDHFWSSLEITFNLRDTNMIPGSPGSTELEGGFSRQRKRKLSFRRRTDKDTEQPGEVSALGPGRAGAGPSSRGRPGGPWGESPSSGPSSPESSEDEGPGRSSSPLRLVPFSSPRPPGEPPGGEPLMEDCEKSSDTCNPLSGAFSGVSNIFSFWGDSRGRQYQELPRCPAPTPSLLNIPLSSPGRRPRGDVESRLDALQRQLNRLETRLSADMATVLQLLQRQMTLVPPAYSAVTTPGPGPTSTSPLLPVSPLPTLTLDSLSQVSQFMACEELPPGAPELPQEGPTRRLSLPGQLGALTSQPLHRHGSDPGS
`Oc1ccccc1C(=S)N1CCN(C(=S)c2ccccc2O)CC1` was tested, and the “hERG current change (%, negative = inhibition) at 10uM” value was 18.4%. For `CN1CCN(S(=O)(=O)c2ccc(N3CCN(S(=O)(=O)/C=C/c4ccccc4)CC3)nc2)CC1`, the “hERG current change (%, negative = inhibition) at 10uM” value was 10.5%. For `CC(=O)C1=C(O)C(=O)N(CCC(=O)O)C1c1cccc(F)c1` (centres unmarked), the “hERG current change (%, negative = inhibition) at 10uM” value was 11.1%. `Cc1nnc(NC(=O)C2CCN(c3cnccn3)CC2)s1` was tested, and the “hERG current change (%, negative = inhibition) at 10uM” value was 5.76%. In the case of `COc1ccccc1N(C)S(=O)(=O)c1ccc(Cl)c(C(=O)NCCCN2CCOCC2)c1`, the “hERG current change (%, negative = inhibition) at 10uM” value was -4.75%. `Cc1ccc(-c2csc(-c3cc(C)on3)n2)cc1` was tested, and the “hERG current change (%, negative = inhibition) at 10uM” value was 23.2%. For `O=C(N/N=C/c1ccc2c(c1)OCO2)c1ccc(COCC(F)(F)C(F)F)cc1`, the “hERG current change (%, negative = inhibition) at 10uM” value was 17.3%. With `CC(=O)Nc1ccc(-c2cc(-c3ccc(NC(C)=O)cc3)nc(-c3ccccc3)n2)cc1` the “hERG current change (%, negative = inhibition) at 10uM” value was 1.34%. In the case of `Cc1c(C(=O)N2CCOCC2)sc2ncn(CC(=O)N3CCC(C)CC3)c(=O)c12`, the “hERG current change (%, negative = inhibition) at 10uM” value was -7.86%. With `CCCCNCc1cc(OCC)c(OCC)cc1Br.Cl` the “hERG current change (%, negative = inhibition) at 10uM” value was 24.1%. For `COC(=O)c1ccc(-n2c(C)cc(C(=O)COC(=O)CNS(=O)(=O)c3ccc(C)cc3)c2C)cc1`, the “hERG current change (%, negative = inhibition) at 10uM” value was -26.7%. For `COc1ccc(C(=O)NC(=S)Nc2ccc3c(c2)Cc2ccccc2-3)cc1`, the “hERG current change (%, negative = inhibition) at 10uM” value was 17%. For `O=C(c1cccc2ccccc12)N1CCN(c2ccccc2F)CC1`, the “hERG current change (%, negative = inhibition) at 10uM” value was -9.72%. `O=C1OCc2cccc([N+](=O)[O-])c21` was tested, and the “hERG current change (%, negative = inhibition) at 10uM” value was 4.68%. In the case of `O=C(CN1CCCC1)Nc1ccc([N+](=O)[O-])cc1`, the “hERG current change (%, negative = inhibition) at 10uM” value was -22.6%. In the case of `COc1ccc(C(=O)Nc2cccc(C(=O)N3CCCCC3)c2)cc1`, the “hERG current change (%, negative = inhibition) at 10uM” value was 6%. In the case of `Cc1ccc(C(=O)Nc2ccc3c(c2)OCO3)cc1Cl`, the “hERG current change (%, negative = inhibition) at 10uM” value was 19.7%. For `COc1nc(NCc2cccnc2)nc(OC)n1`, the “hERG current change (%, negative = inhibition) at 10uM” value was 8.02%. For `CC(Sc1nc2ccccc2s1)C(=O)c1c(N)n(C)c(=O)n(C)c1=O` (centres unmarked), the “hERG current change (%, negative = inhibition) at 10uM” value was -24.8%. In the case of `COc1ccc(N2C(=O)c3ccccc3NC2c2ccc(OC)c(Cn3cc([N+](=O)[O-])cn3)c2)cc1` (centres unmarked), the “hERG current change (%, negative = inhibition) at 10uM” value was 6.1%. With `CC(=O)NCCc1nc2ccccc2n1CCOc1ccccc1C` the “hERG current change (%, negative = inhibition) at 10uM” value was -2.09%. `CCCCc1ccc(NC(=O)Nc2cc(C)nn2C)cc1` was tested, and the “hERG current change (%, negative = inhibition) at 10uM” value was 8.96%. `COc1cc(CC(=O)Nc2cccc(C(F)(F)F)c2)cc(OC)c1OC` was tested, and the “hERG current change (%, negative = inhibition) at 10uM” value was 0.0103%. In the case of `Cl.O=C(c1ccccc1)C(CCC(CN1CCOCC1)C(=O)c1ccccc1)CN1CCOCC1` (centres unmarked), the “hERG current change (%, negative = inhibition) at 10uM” value was -7.92%. For `O=C(NNC(=O)C1CCN(S(=O)(=O)c2cccc(Cl)c2)CC1)C1CC1`, the “hERG current change (%, negative = inhibition) at 10uM” value was -5.41%. For `O=C(OCC(=O)N1CCCC1)c1ccc(NS(=O)(=O)c2cccs2)cc1O`, the “hERG current change (%, negative = inhibition) at 10uM” value was 17.1%. In the case of `COc1ccc(-n2nc3c(c2NC(=O)C2CCCC2)CS(=O)C3)cc1` (centres unmarked), the “hERG current change (%, negative = inhibition) at 10uM” value was -0.0255%. `CCOP(=O)(OCC)C(NC(=O)c1cc([N+](=O)[O-])cc([N+](=O)[O-])c1)C(F)(F)F` (centres unmarked) was tested, and the “hERG current change (%, negative = inhibition) at 10uM” value was 4.88%. In the case of `CCC(C)(C)n1nnnc1C(c1ccccc1)N1CCN(C2CCCC2)CC1` (centres unmarked), the “hERG current change (%, negative = inhibition) at 10uM” value was -7.1%. With `COc1ccc(C2NC(=O)NC(C)=C2C(C)=O)cc1` (centres unmarked) the “hERG current change (%, negative = inhibition) at 10uM” value was 6.39%. In the case of `CC1CN(Cc2nc3c(c(=O)n(C)c(=O)n3C)n2CCCc2ccccc2)CC(C)O1` (centres unmarked), the “hERG current change (%, negative = inhibition) at 10uM” value was -8.29%. In the case of `O=C(CSc1nc2c(sc3ccccc32)c(=O)n1CCO)NCC1CCCO1` (centres unmarked), the “hERG current change (%, negative = inhibition) at 10uM” value was -3.42%. For `Cc1cccc(NNC(=S)Nc2c(C)cccc2C)c1`, the “hERG current change (%, negative = inhibition) at 10uM” value was -3.74%. In the case of `COc1ccc(-c2csc(NC(C)=O)n2)cc1OC`, the “hERG current change (%, negative = inhibition) at 10uM” value was 5.13%. In the case of `Cc1c(S(=O)(=O)Nc2cc(Cl)ccc2Cl)c(=O)n(C)c(=O)n1C`, the “hERG current change (%, negative = inhibition) at 10uM” value was 4.09%. With `Cn1c(SCC(=O)NCc2ccco2)nnc1-c1cccs1` the “hERG current change (%, negative = inhibition) at 10uM” value was 3.45%. `O=C(c1ccco1)N1CCN(C2CC(=O)N(c3ccc(C(F)(F)F)cc3)C2=O)CC1` (centres unmarked) was tested, and the “hERG current change (%, negative = inhibition) at 10uM” value was -25.5%. In the case of `CCCCCc1c(C)nc(Nc2nc(C)c3cc(OC)ccc3n2)[nH]c1=O`, the “hERG current change (%, negative = inhibition) at 10uM” value was 6.83%. With `Cc1c(CC(=O)N2CCC(C(=O)O)CC2)c(=O)oc2cc3c(cc12)CCC1(CCCCC1)O3` the “hERG current change (%, negative = inhibition) at 10uM” value was 0.494%. For `Cc1ccc(C(=O)Cn2cncn2)cc1.Cl`, the “hERG current change (%, negative = inhibition) at 10uM” value was 10.1%. For `COc1ccc(Cl)cc1NC(=O)CN(C)S(=O)(=O)c1cccs1`, the “hERG current change (%, negative = inhibition) at 10uM” value was -26.2%. For `CN(C)C(=O)N1CCN(C(=O)c2ccccc2Sc2ccccc2C#N)CC1`, the “hERG current change (%, negative = inhibition) at 10uM” value was -2.59%. `CCOC(=O)c1c(C)[nH]c(C)c1C(=O)CN1C(=O)NC2(CCCCCC2)C1=O` was tested, and the “hERG current change (%, negative = inhibition) at 10uM” value was 6.33%. For `CCOC(=O)CCCSc1nc(-c2ccc3c(c2)OCO3)cc(C(F)(F)F)c1C#N`, the “hERG current change (%, negative = inhibition) at 10uM” value was 6.74%. For `O=c1[nH]c(=O)n(CCC2=CCCCC2)c(O)c1/C=N/Nc1cccc2ccccc12`, the “hERG current change (%, negative = inhibition) at 10uM” value was 1.33%. `CCc1cc(=O)oc2c(C)c(OCC(=O)NCC3CCC(C(=O)O)CC3)ccc12` (centres unmarked) was tested, and the “hERG current change (%, negative = inhibition) at 10uM” value was -0.379%. `O=C(COC(=O)CCc1ccccc1)Nc1ccccc1OC(F)F` was tested, and the “hERG current change (%, negative = inhibition) at 10uM” value was -2.25%. In the case of `CCCCCCn1c(N2CCCC2)nc2c1c(=O)n(C)c(=O)n2C`, the “hERG current change (%, negative = inhibition) at 10uM” value was -1.96%. In the case of `O=C1Nc2ccccc2N=C(c2ccccc2)C1Br` (centres unmarked), the “hERG current change (%, negative = inhibition) at 10uM” value was 9.91%. In the case of `S=C(NCc1ccco1)N/N=C/c1ccc(Cl)cc1`, the “hERG current change (%, negative = inhibition) at 10uM” value was 7.02%. `CCC1(C)NC(=O)N(CC(=O)N2N=C(c3ccccc3)CC2c2ccc(OC)cc2)C1=O` (centres unmarked) was tested, and the “hERG current change (%, negative = inhibition) at 10uM” value was -8.3%. In the case of `Cc1ccccc1-c1ccc(=O)n(CC(=O)Nc2ccc(S(=O)(=O)N(C)C)cc2)n1`, the “hERG current change (%, negative = inhibition) at 10uM” value was 14.5%. For `O=C(Nc1nccs1)c1cccnc1`, the “hERG current change (%, negative = inhibition) at 10uM” value was 1.45%. For `O=C(CN1C(=O)c2cccc3cccc(c23)C1=O)NCCN1CCOCC1`, the “hERG current change (%, negative = inhibition) at 10uM” value was 13.7%. With `COc1ccc(S(=O)(=O)N2Cc3ccccc3CC2C(=O)O)cc1OC` (centres unmarked) the “hERG current change (%, negative = inhibition) at 10uM” value was 4.9%. With `CC(=O)NC12CC3CC(C1)CC(C(=O)Nc1nc4c(C)cccc4s1)(C3)C2` the “hERG current change (%, negative = inhibition) at 10uM” value was -39%.
